# Reference: the supplement of paper PMC7238544
# Structures can show the parent of a compound that is named as a salt. ± gives the standard deviation of the averaged measurements. Some of the results follow.
# Key:
# Details in all cases: priming compound concentration 100 µM
# [1] = test system: hAMSC donor 1; assay: Hoechst total cell count ratio vs vehicle control; higher = more cells (less toxicity)
# [2] = test system: hAMSC donor 2; assay: as above
# [3] = test system: hAMSC donor 1; assay: transgenic luciferase activity (RLU/mg protein) fold change vs vehicle control (ratio); higher = more transgene expression
# [4] = test system: hAMSC donor 2; assay: as above
# [5] = test system: hAMSC donor 1; assay: transfection efficiency (EGFP+ cells / Hoechst count) fold change vs vehicle control (ratio); hAMSC are human adipose-derived mesenchymal stem cells given an EGFP-luciferase plasmid by lipofection; higher = enhanced transfection
# [6] = test system: hAMSC donor 2; assay: as above
# 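For Hoechst total cell count ratio vs vehicle control in this document: compound added 30 min before Lipofectamine 3000 lipoplex delivery, triplicate-well means expressed against DMSO vehicle control wells of the same 96-well plate.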
# 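For transfection efficiency (EGFP+ cells / Hoechst count) fold change vs vehicle control in this document: compounds added 30 min before Lipofectamine 3000 lipoplex transfection, triplicate means relative to DMSO vehicle wells on the same plate, luciferase RLU normalized to BCA total protein.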
# 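For transgenic luciferase activity (RLU/mg protein) fold change vs vehicle control in this document: compounds in DMSO added 30 min before Lipofectamine 3000 transfection of pEGFP-Luc in 96-well plates, values are means of triplicate wells over DMSO vehicle wells on the same plate.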
Compound,Hoechst total cell count ratio [1],Hoechst total cell count ratio [2],transgenic luciferase activity [3],transgenic luciferase activity [4],transfection efficiency [5],transfection efficiency [6]
N#Cc1ccc(C(c2ccc(C#N)cc2)n2cncn2)cc1 [Letrozole],1.37 ± 0.094,1.18 ± 0.19,0.709 ± 0.024,0.518 ± 0.093,0.476 ± 0.16,0.92 ± 0.064
Nc1nc(O)c2ncn(CCC(CO)CO)c2n1 [Penciclovir],0.817 ± 0.034,1.02 ± 0.094,0.788 ± 0.24,0.791 ± 0.28,1.33 ± 0.19,1.56 ± 0.26
CCCCCCCCCCC[C@@H](C[C@@H]1OC(=O)[C@H]1CCCCCC)OC(=O)[C@H](CC(C)C)NC=O [Orlistat],1.81 ± 0.16,1.28 ± 0.062,0.389 ± 0.27,0.293 ± 0.064,0.606 ± 0.093,0.331 ± 0.058
COc1ccccc1N1CCN(CC(O)COc2cccc3ccccc23)CC1 (stereo unspecified) [Naftopidil],0.867 ± 0.038,0.175 ± 0.037,0.795 ± 0.14,0.0786 ± 0.073,0.651 ± 0.06,0.215 ± 0.19
CC(COc1ccccc1)NC(C)C(O)c1ccc(O)cc1 (stereo unspecified) [Duvadilan],1.27 ± 0.24,1.23 ± 0.087,1.02 ± 0.39,0.424 ± 0.12,1.04 ± 0.025,0.933 ± 0.16
CC(C(=O)O)c1cccc(C(=O)c2ccccc2)c1 (stereo unspecified) [Ketoprofen],–,–,0.635 ± 0.079,0.71 ± 0.12,1.35 ± 0.36,0.868 ± 0.083
C[C@H]1c2cccc(O)c2C(=O)C2=C(O)[C@]3(O)C(=O)C(C(N)=O)=C(O)[C@@H](N(C)C)[C@@H]3[C@@H](O)[C@@H]21 [Doxycycline],1.59 ± 0.14,2.12 ± 0.24,0.961 ± 0.12,–,–,–
CC1Cc2ccccc2N1NC(=O)c1ccc(Cl)c(S(N)(=O)=O)c1 (stereo unspecified) [Indapamide],1.19 ± 0.065,1.27 ± 0.26,0.832 ± 0.38,–,0.633 ± 0.29,0.799 ± 0.26
Nc1ccc(O)c(C(=O)O)c1 [Mesalamine],1.266 ± 0.0092,1.18 ± 0.13,0.651 ± 0.13,–,0.563 ± 0.11,0.704 ± 0.25
Nc1ncnc2c1ncn2[C@@H]1O[C@H](CO)[C@@H](O)[C@@H]1O [Vidarabine],1.07 ± 0.16,0.791 ± 0.27,1.88 ± 0.68,–,0.934 ± 0.2,0.811 ± 0.33
COc1ccc(CCN(C)CCCC(C#N)(c2ccc(OC)c(OC)c2)C(C)C)cc1OC (stereo unspecified) [Verapamil hydrochloride],–,–,1.16 ± 0.27,0.814 ± 0.21,1.83 ± 0.069,1 ± 0.053
CCn1cc(C(=O)O)c(=O)c2cc(F)c(N3CCN(C)CC3)cc21 [Pefloxacin mesylate],1.63 ± 0.25,1.01 ± 0.16,0.497 ± 0.31,–,0.678 ± 0.082,1.13 ± 0.2
